# Where “and” joins values, the source holds several entries; their conditions need not be identical. Identical values can stand only once. About 50,000 (12%) of roughly 420,000 compounds were called active. This list was built around the results that the source calls inconclusive (neither active nor inactive); the mix of calls is not that of the screen. The call rests on the fitted dose curve; in most records, active means well fitted inhibition curve with a large enough effect; inconclusive means small, poorly fitted or top-dose-only effect; inactive means flat fitted curve, though single readings scatter. Potencies of inconclusive entries are doubtful fits and often do not repeat.
# Assay: qHTS for Inhibitors of human tyrosyl-DNA phosphodiesterase 1 (TDP1): qHTS in cells in presence of CPT; further: nearly all actives have a fitted effect of over 55% in size
# Settings: chicken DT40 Tdp1-/-;hTDP1 cells + 20 nM CPT, ATP luminescence, 48 h; activity change, negative = growth inhibition: at 46.2 µM (top of the series) unless noted
# Procedure, shortened: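 Cell growth measured by CellTiter-Glo luminescence after a minimum 48 h, 37 C compound exposure with 20 nM CPT in Tdp1-knockout DT40 cells stably expressing hTDP1, seeded 400/well; qHTS titration format.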
# On the % scale 0 is the no-effect control and ±100 the full control effect; potency means the concentration at half of the fitted maximal effect; tags describe the fitted curve by direction and shape.
SMILES,Potency,"activity change, negative = growth inhibition"
C/C(CC(=O)NC(C)(C)C)=N\NC(=O)c1ccco1,inactive,–
O=C(c1ccc(F)cc1)N1CCC(C(=O)N2CCN(S(=O)(=O)c3ccccc3Br)CC2)CC1,inactive,–
COc1ccc(NC(=O)C2CCN(C(=O)c3cccs3)CC2)c(OC)c1,"inconclusive: 20.6 µM [inhibitor, single point]",–
CC(NCC(=O)Nc1ccccc1C(=O)NC1CC1)c1ccco1 (stereo unspecified),inactive,–
O=C(CSc1nnc(NC(=O)C2CC(=O)N(c3ccc(F)cc3)C2)s1)NCC1CCCO1 (stereo unspecified),inactive,–
Cc1ccc2[nH]c(=O)c(C(c3nnnn3CC3CCCO3)N3CCOCC3)cc2c1 (stereo unspecified),inactive,–
CCOC(=O)c1sc(-c2ccc(Br)cc2)cc1N,inactive,–
CCCc1cc(N2CCOCC2)n2ncc(-c3ccccc3)c2n1,"inconclusive: 10.3 µM [inhibitor, partial curve, poor fit]",–
N#Cc1ccc(CN2CCN(C(=O)C3CC(=O)N(c4ccc5c(c4)OCCO5)C3)CC2)cc1 (stereo unspecified),"inconclusive: 29.1 µM [inhibitor, single point]",–
CC1Cc2ccccc2N1C(=O)Cn1c(=O)oc2cc(S(=O)(=O)N3CCCCC3)ccc21 (stereo unspecified),"inconclusive: 10.3 µM [inhibitor, partial curve]",–
Cc1cc(C)cc(N(CC(=O)NC2CCCCC2)C(=O)c2ccc(C)s2)c1,"inconclusive: 18.4 µM [inhibitor, single point]",–
Cc1ccccc1NC(=O)c1c(NC(=O)C(F)(F)F)sc2c1CCCCC2,active: 3.66 µM,–
Cn1ncc(Cl)c1C(=O)NCc1cc(C(C)(C)C)n[nH]1,"inconclusive: 29.1 µM [inhibitor, single point]",–
CSc1nc(N)nc(SC2C=CCCC2)c1C#N (stereo unspecified),inactive,–
N#Cc1nc(-c2cccs2)oc1NCc1ccco1,"inconclusive: 29.1 µM [inhibitor, single point]",–
Nc1cccn2c(-c3ccc(Cl)cc3)cnc12,"inconclusive: 5.8 µM [inhibitor, full curve]",–
CC(C)C[C@H]1CNC(=S)N1CC1CCCN1C[C@H](CC(C)C)N1C[C@H](CC(C)C)N(CCc2ccccc2)C1=S (stereo partly specified),active: 8.2 µM,–
O=C(O)/C=C/C(=O)Nc1nc(-c2ccc3ccccc3c2)cs1,inactive,–
Cc1cccn2c(/C=N/OCc3ccc(F)cc3)c(-c3ccc(Cl)cc3)nc12,"inconclusive: 25.9 µM [inhibitor, single point]",–
O=C(NCCc1nc2ccccc2[nH]1)/C(=C/c1ccc2c(c1)OCO2)NC(=O)c1ccccc1Cl,–,inconclusive: -36.8% [inhibitor]
O=C(COC(=O)C1CCC1)NCc1ccccc1,inactive,–
N=c1n(CCO)c2ccccc2n1CCOc1ccc(Cl)cc1Cl,active: 6.51 µM,–
COc1ccc(C(=O)NC2CC2)cc1OC1CCN(Cc2ccc(F)cc2Cl)CC1,"inconclusive: 20.6 µM [inhibitor, single point]",–
O=C(NCc1ccco1)c1cccc(NC(=O)c2ccco2)c1,inactive,–
Cc1ccc(C(=O)c2sc(Nc3ccc(F)cc3)nc2N)c(C)c1,active: 13 µM,–
COC(=O)c1ccc(NC(=S)NC(=O)c2cccnc2)cc1,inactive,–

SMILES,Potency,"activity change, negative = growth inhibition"
CC(C)CC1C(=O)N(Cc2cn(Cc3ccco3)nn2)CCS(=O)(=O)N1Cc1ccc(-c2ccc(Cl)c(Cl)c2)cc1 (stereo unspecified),active: 18.4 µM,–
Cc1c(C(=O)N2CCOc3ccc(Cl)cc3C2)sc2ncnc(NCCc3ccccn3)c12,–,inactive: -10.7% [at 9.04 µM]
Cc1noc(C)c1CSc1nc2ccccc2c(=O)n1-c1ccc(F)cc1F,active: 8.2 µM,–
COc1ccc(-n2nnnc2SCC(=O)Nc2nnc(C)s2)cc1,active: 6.31 µM,–
O=C(CN1C(=O)NC2(CCCC2)C1=O)N1CCN(S(=O)(=O)c2cccc(C(F)(F)F)c2)CC1,inactive,–
CCN1CCN(c2ccc(NC(=O)c3cc(S(=O)(=O)N4CCCC4)ccc3Cl)cc2)CC1,"inconclusive: 29.1 µM [inhibitor, single point]",–
CCOC(=O)c1c(NC(=O)c2ccccc2N(C)S(=O)(=O)c2ccccc2)sc2c1CCCC2,"inconclusive: 29.1 µM [inhibitor, single point]",–
O=C(CS(=O)(=O)c1ccccc1)Nc1ccccc1Br,"inconclusive: 25.9 µM [inhibitor, single point]",–
CCN(Cc1ccccc1)C(=O)c1ccc(CS(=O)c2ccccc2C)o1 (stereo unspecified),"inconclusive: 29.1 µM [inhibitor, single point]",–
O=C(CCN1C(=O)c2ccccc2S1(=O)=O)Nc1cccc(F)c1,inactive,–
Cn1c(Cn2c(=O)sc3ccccc32)nnc1SCC(=O)NCc1ccccc1,"inconclusive: 29.1 µM [inhibitor, single point]",–
O=C(NC12CC3CC(CC(C3)C1)C2)c1ccccc1O,"inconclusive: 25.9 µM [inhibitor, single point]",–
Cc1ccc(N2C(=O)CC(Cc3cccc(C)c3)C2=O)cc1 (stereo unspecified),inactive,–
CCc1nnc(NC(=O)c2ccccc2NC(=O)C2CCN(C(=O)c3ccco3)CC2)s1,active: 14.1 µM,–
Cc1ccc2c(c1)C(C)(c1ccccc1)CC(C)(C)N2C(=O)c1ccc(F)cc1 (stereo unspecified),"inconclusive: 23.1 µM [inhibitor, single point]",–
CCC1C(=O)N(C)CCc2ccccc21 (stereo unspecified),inactive,–
O=C1CCCc2[nH]c(=O)c(-c3nc(-c4cccc([N+](=O)[O-])c4)cs3)cc21,"inconclusive: 7.31 µM [inhibitor, full curve, poor fit]",–
COc1ccccc1NCCC(=O)OCC(=O)NC1CC1,inactive,–
Nc1ncccc1C(=O)OCC(=O)N1CCN(S(=O)(=O)c2ccc(Cl)cc2)CC1,"inconclusive: 16.4 µM [inhibitor, single point]",–
Cn1c(NCc2ccco2)nc2c1c(=O)n(Cc1ccc(Cl)c(Cl)c1)c(=O)n2C,"inconclusive: 23.1 µM [inhibitor, single point]",–
COC(=O)c1scc(C)c1-n1ccc(C(=O)C(=O)N(C)C)c1,inactive,–
FC(F)Sc1ccc(-n2c(-c3ccc(Cl)cc3)c[n+]3c2CCC3)cc1,active: 11.6 µM,–
CN(Cc1cccc(Cl)c1Cl)C(=O)c1cc(S(=O)(=O)N2CCOCC2)ccc1F,active: 16.4 µM,–
CCOc1nc2ccccc2nc1C,inactive,–
CC(NC(=O)/C(C#N)=C/c1ccc([N+](=O)[O-])o1)c1ccccc1 (stereo unspecified),active: 0.651 µM,–
CCOC(=O)c1cc2c(=O)n3ccccc3nc2n(Cc2ccco2)c1=NC(=O)c1ccc(F)cc1,"inconclusive: 29.1 µM [inhibitor, single point]",–

SMILES,Potency,"activity change, negative = growth inhibition"
CC(Oc1cccc(Cl)c1)C(=O)NC1CC(C)(C)NC(C)(C)C1 (stereo unspecified),inactive,–
O=C1C=C(c2cnc3ccccc3c2)C[C@@H](c2ccc3c(c2)OCO3)C1,active: 20.6 µM,–
O=C(CSc1ccc2nnc(-c3ccccc3)n2n1)N1CCCc2ccccc21,inactive,–
CCOc1ccc(-n2cc(-c3ccc(OC)c(OC)c3)[nH]c2=S)cc1,inactive,–
Cc1cc(=O)n2[nH]c(-c3ccc(C(C)(C)C)cc3)cc2n1,active: 18.4 µM,–
CSCCC(C)N1CCC(Oc2ccc(C(=O)N3CCCC3)cc2)CC1 (stereo unspecified),inactive,–
CCN(CCCNC(=O)Cn1ncc2c3ccccc3n(C)c2c1=O)c1cccc(C)c1,"inconclusive: 29.1 µM [inhibitor, single point]",–
Cc1ccccc1C(=O)n1nc(-c2cccnc2)nc1NCc1ccc(F)cc1,"inconclusive: 10.3 µM [inhibitor, partial curve]",–
O=C(N/N=C/c1ccc([N+](=O)[O-])o1)c1cccc(S(=O)(=O)N2CCOCC2)c1,"inconclusive: 29.1 µM [inhibitor, single point]",–
O=C(OCC(=O)N1CCC(Cc2ccccc2)CC1)c1ccccc1NCCO,"inconclusive: 23.1 µM [inhibitor, single point]",–
COC[C@@H]1CCCN1[C@H]1CS(=O)(=O)N[C@@H]1COCc1ccccc1,inactive,–
Cc1cc(C(=O)CSc2n[nH]c(N)n2)c(C)n1-c1ccc(F)cc1,active: 20.6 µM,–
Cc1ccc(-c2c3c(=O)n(C)c(=O)n(C)c3cn2N2CCOCC2)cc1,"inconclusive: 23.1 µM [inhibitor, single point]",–
O=C(Nc1cccc(Cl)c1)c1cc(S(=O)(=O)N2CCC3(CC2)OCCO3)ccc1F,"inconclusive: 25.9 µM [inhibitor, single point]",–
CCCOc1ccc(C(=O)NCCc2ccccc2)cc1,inactive,–
COc1ccccc1CNS(=O)(=O)c1ccc(-c2cc(C)no2)cc1,active: 0.58 µM,–
CC(C)(C)C(=O)N1N=C(c2ccc(NS(C)(=O)=O)cc2)CC1c1cccs1 (stereo unspecified),"inconclusive: 29.1 µM [inhibitor, single point]",–
CCOC(=O)c1ccccc1NC(=O)COc1cc(=O)n(CC)c2ccccc12,"inconclusive: 18.4 µM [inhibitor, single point] and inconclusive: 2.06 µM [inhibitor, partial curve]",–
COc1ccc2cnn(CCOc3ccccc3)c(=O)c2c1OC,"inconclusive: 29.1 µM [inhibitor, single point]",–
Nc1c(Cl)cc(C2=NCCn3c2c2ccccc2[n+]3[O-])cc1Cl,"inconclusive: 5.8 µM [inhibitor, single point]",–
CC(NC(=O)c1cc2c(=O)n(C)c3ccccc3c2n1C)c1ccc2c(c1)OCCO2 (stereo unspecified),active: 29.1 µM,–
COc1ccc(-c2nn(-c3ccccc3)cc2C(=O)NC(=S)Nc2cc(Cl)ccc2Cl)cc1,inactive,–
CC(=O)/C=C(\C)Nc1c(C)n(C)n(-c2ccccc2)c1=O,inactive,–
CC(NC(=O)c1nn(C)c(=O)c2ccccc12)c1ccccc1 (stereo unspecified),"inconclusive: 20.6 µM [inhibitor, partial curve]",–
